Results as given in PMC3591284.
These are yes or no findings as the source states them, for the method shown. In cells and extracts the contact can be indirect. Some results given as binding are weak or reduced against the parent protein; the word gives no strength. For part of these data: Tags and fused reporters may be left off the sequences shown. Blank lines part the entries; values can stand above or below the substance they belong to.

By UniProt entry, the sequences of proteins in these tests, tags left out.
UniProt O60678: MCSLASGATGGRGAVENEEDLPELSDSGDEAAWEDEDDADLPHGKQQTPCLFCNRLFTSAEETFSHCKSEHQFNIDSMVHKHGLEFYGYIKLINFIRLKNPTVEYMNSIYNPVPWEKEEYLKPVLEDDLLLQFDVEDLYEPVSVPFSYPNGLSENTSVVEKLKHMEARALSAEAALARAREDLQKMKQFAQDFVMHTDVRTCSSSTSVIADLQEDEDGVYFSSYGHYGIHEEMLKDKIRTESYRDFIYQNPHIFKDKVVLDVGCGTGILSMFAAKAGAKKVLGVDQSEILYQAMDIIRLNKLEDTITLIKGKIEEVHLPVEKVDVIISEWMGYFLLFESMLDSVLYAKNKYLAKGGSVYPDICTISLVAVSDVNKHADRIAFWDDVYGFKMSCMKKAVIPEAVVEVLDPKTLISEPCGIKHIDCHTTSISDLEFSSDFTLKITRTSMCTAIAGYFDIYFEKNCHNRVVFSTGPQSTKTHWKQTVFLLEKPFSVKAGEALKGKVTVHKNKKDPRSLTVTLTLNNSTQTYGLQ
UniProt Q99873: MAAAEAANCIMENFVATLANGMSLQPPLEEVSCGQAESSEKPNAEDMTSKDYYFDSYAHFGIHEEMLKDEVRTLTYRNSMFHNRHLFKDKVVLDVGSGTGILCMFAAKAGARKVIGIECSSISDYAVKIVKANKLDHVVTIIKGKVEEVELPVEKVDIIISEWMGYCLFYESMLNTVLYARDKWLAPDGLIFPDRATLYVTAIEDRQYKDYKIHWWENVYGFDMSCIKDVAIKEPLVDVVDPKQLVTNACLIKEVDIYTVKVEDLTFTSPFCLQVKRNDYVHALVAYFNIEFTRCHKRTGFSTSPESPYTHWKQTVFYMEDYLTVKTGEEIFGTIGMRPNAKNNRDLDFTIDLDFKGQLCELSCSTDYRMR
UniProt Q96LA8: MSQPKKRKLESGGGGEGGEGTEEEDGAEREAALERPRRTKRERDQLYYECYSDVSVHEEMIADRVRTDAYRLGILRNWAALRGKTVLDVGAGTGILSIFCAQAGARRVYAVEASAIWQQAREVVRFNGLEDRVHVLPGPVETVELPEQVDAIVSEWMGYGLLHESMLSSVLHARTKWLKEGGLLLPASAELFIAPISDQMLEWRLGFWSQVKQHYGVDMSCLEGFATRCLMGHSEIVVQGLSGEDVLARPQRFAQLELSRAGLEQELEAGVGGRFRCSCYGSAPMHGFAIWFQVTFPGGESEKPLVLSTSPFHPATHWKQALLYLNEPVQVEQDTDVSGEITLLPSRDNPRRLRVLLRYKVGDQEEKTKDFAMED
UniProt Q12873: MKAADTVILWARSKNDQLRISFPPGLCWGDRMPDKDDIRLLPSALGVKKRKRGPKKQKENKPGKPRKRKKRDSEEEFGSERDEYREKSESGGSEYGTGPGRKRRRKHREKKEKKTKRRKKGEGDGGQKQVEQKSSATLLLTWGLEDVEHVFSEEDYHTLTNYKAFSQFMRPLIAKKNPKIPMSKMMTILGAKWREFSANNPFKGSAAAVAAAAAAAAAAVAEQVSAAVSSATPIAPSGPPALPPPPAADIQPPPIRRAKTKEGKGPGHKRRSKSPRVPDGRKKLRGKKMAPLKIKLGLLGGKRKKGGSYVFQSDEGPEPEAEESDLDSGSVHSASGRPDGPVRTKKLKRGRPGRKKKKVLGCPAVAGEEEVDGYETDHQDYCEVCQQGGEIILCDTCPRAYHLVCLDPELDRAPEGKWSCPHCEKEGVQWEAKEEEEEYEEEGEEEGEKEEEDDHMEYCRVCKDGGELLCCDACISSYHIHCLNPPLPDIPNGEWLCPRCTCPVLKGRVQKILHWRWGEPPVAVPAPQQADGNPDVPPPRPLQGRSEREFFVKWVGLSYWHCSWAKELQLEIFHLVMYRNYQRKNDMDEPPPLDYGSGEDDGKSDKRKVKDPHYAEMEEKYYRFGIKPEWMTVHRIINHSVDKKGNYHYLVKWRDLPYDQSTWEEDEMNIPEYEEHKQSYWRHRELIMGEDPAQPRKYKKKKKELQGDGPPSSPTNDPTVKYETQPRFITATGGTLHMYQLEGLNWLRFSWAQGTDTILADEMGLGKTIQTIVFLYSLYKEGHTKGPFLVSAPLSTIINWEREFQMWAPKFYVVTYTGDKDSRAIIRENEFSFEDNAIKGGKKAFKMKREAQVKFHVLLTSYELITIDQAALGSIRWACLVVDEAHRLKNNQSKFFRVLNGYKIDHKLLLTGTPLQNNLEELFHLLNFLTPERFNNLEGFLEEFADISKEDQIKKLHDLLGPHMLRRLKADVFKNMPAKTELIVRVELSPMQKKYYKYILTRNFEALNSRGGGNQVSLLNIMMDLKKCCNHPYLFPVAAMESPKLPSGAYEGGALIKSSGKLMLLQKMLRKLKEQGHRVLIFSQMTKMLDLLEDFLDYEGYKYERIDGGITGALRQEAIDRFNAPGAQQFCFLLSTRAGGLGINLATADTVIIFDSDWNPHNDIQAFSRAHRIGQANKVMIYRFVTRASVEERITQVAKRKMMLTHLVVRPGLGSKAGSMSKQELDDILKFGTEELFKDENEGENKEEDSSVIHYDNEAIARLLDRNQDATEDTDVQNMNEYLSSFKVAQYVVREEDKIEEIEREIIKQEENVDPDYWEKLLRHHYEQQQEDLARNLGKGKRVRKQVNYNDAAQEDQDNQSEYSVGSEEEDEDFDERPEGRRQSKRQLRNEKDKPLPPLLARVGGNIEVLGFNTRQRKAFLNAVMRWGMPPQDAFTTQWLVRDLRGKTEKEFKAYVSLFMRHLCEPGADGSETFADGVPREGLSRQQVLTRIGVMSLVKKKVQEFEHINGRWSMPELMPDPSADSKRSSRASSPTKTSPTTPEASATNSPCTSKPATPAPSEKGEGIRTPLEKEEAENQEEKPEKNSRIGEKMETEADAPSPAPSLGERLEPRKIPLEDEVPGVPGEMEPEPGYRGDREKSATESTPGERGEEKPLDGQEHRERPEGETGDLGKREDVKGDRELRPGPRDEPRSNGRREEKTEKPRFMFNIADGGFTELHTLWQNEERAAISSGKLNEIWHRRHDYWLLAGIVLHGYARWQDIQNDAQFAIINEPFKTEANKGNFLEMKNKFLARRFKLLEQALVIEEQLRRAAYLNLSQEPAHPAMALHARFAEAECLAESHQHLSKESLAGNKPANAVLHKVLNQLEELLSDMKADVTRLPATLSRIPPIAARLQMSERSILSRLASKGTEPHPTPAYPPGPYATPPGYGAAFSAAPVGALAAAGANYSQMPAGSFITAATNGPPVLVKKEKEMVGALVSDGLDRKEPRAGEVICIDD
UniProt Q14839: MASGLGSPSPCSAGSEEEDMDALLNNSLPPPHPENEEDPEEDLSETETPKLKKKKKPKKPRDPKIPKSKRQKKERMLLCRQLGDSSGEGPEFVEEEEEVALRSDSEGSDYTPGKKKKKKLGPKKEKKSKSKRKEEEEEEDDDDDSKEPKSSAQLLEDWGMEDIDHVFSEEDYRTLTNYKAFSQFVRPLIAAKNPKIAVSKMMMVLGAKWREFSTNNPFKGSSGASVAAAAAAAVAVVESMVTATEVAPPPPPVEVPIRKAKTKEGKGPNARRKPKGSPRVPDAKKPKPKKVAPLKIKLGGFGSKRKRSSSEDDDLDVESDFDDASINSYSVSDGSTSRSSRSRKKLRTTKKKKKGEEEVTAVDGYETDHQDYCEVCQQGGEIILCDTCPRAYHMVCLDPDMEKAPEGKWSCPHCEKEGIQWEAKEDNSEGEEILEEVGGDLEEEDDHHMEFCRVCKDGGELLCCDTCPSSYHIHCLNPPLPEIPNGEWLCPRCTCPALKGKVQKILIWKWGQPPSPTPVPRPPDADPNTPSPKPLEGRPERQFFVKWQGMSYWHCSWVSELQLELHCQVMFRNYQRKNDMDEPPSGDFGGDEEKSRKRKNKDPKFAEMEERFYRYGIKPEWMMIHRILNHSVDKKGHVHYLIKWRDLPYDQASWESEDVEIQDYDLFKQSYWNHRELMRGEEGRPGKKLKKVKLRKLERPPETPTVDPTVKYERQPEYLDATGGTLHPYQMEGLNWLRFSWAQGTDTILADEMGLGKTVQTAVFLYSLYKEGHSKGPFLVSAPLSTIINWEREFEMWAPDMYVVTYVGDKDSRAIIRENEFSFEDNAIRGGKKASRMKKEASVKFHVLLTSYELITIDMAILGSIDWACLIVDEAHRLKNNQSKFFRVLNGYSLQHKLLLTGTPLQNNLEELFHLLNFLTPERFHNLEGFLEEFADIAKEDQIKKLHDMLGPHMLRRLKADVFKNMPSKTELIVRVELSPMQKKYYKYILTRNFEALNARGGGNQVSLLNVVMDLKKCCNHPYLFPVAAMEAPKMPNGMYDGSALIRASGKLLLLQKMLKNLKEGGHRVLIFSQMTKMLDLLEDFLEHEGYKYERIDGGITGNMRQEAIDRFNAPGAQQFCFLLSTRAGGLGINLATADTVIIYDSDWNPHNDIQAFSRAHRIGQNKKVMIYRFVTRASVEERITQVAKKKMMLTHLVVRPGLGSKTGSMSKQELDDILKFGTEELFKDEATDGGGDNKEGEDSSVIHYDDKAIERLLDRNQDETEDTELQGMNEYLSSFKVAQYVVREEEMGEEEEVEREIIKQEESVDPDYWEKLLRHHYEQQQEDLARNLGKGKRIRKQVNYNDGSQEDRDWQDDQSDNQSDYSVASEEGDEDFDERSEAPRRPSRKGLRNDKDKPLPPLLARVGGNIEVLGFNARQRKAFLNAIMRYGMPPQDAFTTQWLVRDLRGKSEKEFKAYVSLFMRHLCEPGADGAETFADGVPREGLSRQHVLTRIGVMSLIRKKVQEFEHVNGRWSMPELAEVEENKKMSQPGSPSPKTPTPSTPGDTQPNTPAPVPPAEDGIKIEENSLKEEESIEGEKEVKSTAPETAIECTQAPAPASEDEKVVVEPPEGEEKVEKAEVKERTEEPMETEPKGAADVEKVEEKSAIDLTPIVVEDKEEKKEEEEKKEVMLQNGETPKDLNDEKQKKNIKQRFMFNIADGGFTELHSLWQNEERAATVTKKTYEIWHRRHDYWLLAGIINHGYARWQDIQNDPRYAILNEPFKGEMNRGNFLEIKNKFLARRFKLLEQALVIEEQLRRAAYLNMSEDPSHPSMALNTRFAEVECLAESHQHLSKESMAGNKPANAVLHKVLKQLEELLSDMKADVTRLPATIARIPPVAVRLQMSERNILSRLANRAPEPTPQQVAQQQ
UniProt P10242: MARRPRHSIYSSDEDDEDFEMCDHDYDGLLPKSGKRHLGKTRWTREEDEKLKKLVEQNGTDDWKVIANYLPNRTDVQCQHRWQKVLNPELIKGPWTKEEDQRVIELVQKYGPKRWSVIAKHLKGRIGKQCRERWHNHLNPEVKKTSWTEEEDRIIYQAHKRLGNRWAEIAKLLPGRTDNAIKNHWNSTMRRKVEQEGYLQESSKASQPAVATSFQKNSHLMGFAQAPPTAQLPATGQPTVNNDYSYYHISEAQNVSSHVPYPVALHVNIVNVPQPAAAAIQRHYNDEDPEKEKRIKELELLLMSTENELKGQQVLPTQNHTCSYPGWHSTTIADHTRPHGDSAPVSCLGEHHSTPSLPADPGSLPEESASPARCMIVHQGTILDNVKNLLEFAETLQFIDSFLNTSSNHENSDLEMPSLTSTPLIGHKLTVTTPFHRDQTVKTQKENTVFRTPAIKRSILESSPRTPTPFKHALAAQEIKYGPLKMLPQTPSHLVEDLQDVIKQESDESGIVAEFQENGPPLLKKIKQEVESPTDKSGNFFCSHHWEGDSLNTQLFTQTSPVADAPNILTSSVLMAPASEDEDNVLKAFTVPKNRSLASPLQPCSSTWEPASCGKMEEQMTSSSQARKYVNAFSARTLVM
UniProt Q13547: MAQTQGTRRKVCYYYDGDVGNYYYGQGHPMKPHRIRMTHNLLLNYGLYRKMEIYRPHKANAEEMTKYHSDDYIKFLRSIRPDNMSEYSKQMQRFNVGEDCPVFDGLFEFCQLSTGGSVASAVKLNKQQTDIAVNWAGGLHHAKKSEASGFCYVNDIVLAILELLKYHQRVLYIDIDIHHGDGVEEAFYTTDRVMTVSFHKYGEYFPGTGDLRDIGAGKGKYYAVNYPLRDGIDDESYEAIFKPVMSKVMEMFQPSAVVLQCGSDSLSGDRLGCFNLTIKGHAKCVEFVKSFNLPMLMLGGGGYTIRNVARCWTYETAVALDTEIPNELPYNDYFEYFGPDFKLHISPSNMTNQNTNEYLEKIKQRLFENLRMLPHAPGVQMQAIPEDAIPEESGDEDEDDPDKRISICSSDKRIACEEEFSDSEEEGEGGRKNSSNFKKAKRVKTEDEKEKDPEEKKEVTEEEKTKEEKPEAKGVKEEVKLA

Columns and labels:
[1] = molecular target: GST-PRMT3 (UniProt O60678); assay: pull-down; GST and GST-PRMT1, -3, -4, -6 on glutathione beads incubated with 250 µg extract of Flag-Mi2α-overexpressing HEK293 cells; anti-Flag Western blot; only the target purified
[2] = molecular target: GST-PRMT1 (UniProt Q99873); assay: as above
[3] = molecular target: T1, GST-PRMT4 (UniProt Q86X55); assay: as above
T1 sequence: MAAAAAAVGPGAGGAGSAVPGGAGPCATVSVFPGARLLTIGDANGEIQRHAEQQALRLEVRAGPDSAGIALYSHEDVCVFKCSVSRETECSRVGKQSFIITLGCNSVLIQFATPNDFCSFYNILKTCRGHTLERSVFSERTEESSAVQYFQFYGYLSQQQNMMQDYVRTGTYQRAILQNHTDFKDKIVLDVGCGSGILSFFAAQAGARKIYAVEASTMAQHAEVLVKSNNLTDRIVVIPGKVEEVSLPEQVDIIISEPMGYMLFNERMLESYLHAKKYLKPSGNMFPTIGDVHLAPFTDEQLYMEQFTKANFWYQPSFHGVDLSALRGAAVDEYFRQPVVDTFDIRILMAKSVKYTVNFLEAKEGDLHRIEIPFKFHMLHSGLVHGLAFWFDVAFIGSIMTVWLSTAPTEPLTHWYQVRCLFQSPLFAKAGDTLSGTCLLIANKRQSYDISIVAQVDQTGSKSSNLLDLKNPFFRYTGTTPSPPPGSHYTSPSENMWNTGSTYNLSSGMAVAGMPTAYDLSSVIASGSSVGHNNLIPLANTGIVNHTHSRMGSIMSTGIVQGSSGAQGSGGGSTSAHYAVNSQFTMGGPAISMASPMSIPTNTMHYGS

[4] = molecular target: GST-PRMT6 (UniProt Q96LA8); assay: as above
[5] = molecular target: T2, Protein arginine methyltransferase 4 (PRMT4), endogenous in HEK293 cells (human (endogenous in HEK293)) (UniProt Q86X55); assay: co-IP; transfected HEK293 cells, whole-cell extracts in IPH buffer (50 mM Tris pH 8, 150 mM NaCl, 5 mM EDTA, 0.5% NP40, 1 mM DTT), Benzonase-treated, 10 µg/ml ethidium bromide; isotype control IgG in parallel; Western blot
T2 sequence: T1 sequence

[6] = molecular target: Mi2α, endogenous in Jurkat cells (human (endogenous in Jurkat)) (UniProt Q12873); assay: co-IP; endogenous proteins, Jurkat cell extract incubated with anti-PRMT4 or anti-Mi2α or control IgG; Western blot
[7] = molecular target: T3, PRMT4, endogenous in Jurkat cells (human (endogenous in Jurkat)) (UniProt Q86X55); assay: as above
T3 sequence: T1 sequence

[8] = molecular target: Flag-tagged Mi2α, overexpressed in HeLa cells (UniProt Q12873); assay: co-IP; HeLa cells transfected with Flag-Mi2α or empty vector; IP with anti-PRMT4, anti-Flag or isotype control IgG; Western blot with anti-MBD3, anti-HDAC1 and anti-Flag

binding [1]: no binding
binding [2]: binds
binding [3]: binds
binding [4]: no binding
binding [5]: binds
Substance: Flag-tagged Mi2α, overexpressed in HEK293 cells (from UniProt Q12873 1-2000) (enzyme)

binding [5]: binds
Substance: HA-tagged Mi2β, overexpressed in HEK293 cells (from UniProt Q14839 1-1912) (enzyme)

binding [6]: binds
binding [7]: binds
Substance: c-Myb, endogenous in Jurkat cells (from UniProt P10242 1-640)

binding [8]: binds
Substance: HDAC1, endogenous in HeLa cells (from UniProt Q13547 1-482) (enzyme)
